Results published in the supplement of paper PMC11417369.
This is one part of the list.

What follows are sequences tested on PF3D7_0420300 AP2 domain 1 (GST-tagged) (assay: gcPBM binding intensity (ln(normalized median fluorescence intensity)); higher = stronger DNA binding).
Procedure, shortened: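 GST-fused DNA-binding domains of P. falciparum, expressed in E. coli, were applied at about 25 μg on average for 1 h to an Agilent 4 × 180k array of primer-extended double-stranded 36-bp intergenic genomic probes and negative controls. Binding intensity is the highest Masliner-normalised natural-log median intensity across replicate spots of either probe orientation, measured with Alexa488 anti-GST antibody and a 488 nm scan.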

Row | Sequence | gcPBM binding intensity (ln)
1 | AAAACGAAAATTTGGAAACCAAAGGAAAAACATAAT [GTGCAC_negctrl_site709] | 9.62
2 | AAAAAGGTTATTGGTACACACATATGTATATATATA [CACACA_site552] | 9.54
3 | ACATATTAAAATATATGTACATAAAATATGAAAAAA [XGTACX_site5869] | 9.48
4 | ATATTTATTCCTTTTGGTACACAAAAAAAAAAAAAA [XGTACX_site8126] | 8.8
5 | TATATGCTATAATATACACACATACCTATATTTATA [CACACA_site6383] | 9.6
6 | AATTTAAGCAGAACATATATATATATATATATAAAG [CACACA_negctrl_site769] | 9.19
7 | AATTATTTCTTTTACACATGCAATATTTAATTAAAA [TGCATGCA_site598] | 9.05
8 | TTTAAATGCTTTTTGTGGTGACTTATCCTTTCATAA [XGTACX_negctrl_site109] | 9.17
9 | GTTAGGATAGATTAGACATGCACATAAATGCACTTC [TGCATGCA_site561] | 9.09
10 | TTTTTATAGAATTTAACACACATTTCATATAAAAAA [CACACA_site7453] | 8.89
11 | TTAAAATTCAAAAAAAAAAATCAGAATATCAGAAAA [CACACA_negctrl_site1361] | 9.08
12 | TATATAACATAATATACACACATTATATGCGTAATT [CACACA_site6098] | 9.45
13 | ATTAAAGAAATATATACACACATTATGGGGGAATAA [CACACA_site178] | 9.83
14 | GATATATAAATAAATACACACATAAAATAGAAATAT [CACACA_site6881] | 9.93
15 | TAATAATAAACAACCACACACAAAAAAACAAAAAAA [CACACA_site3269] | 9.98
16 | ATTTAATTATGTAAGTGTACTTTGGAATATAATATT [XGTACX_site3186] | 9.28
17 | GTAGCACATATATATTGTACATAATATATACATTAT [XGTACX_site6354] | 9.31
18 | TTTATTTTATAATTCACACATATATACCTATTTTAT [CACACA_site5709] | 9.3
19 | GTGTGGTGCTCGAGGAGTACAAACAATATGTAATTT [XGTACX_site4160] | 9.09
20 | TAAACAGACATATAAACACACATATAAACAGACATA [CACACA_site7214] | 9.91
21 | AATATAAGTAATTATACACACTTAATATTTATATAC [CACACA_site7334] | 9.44
22 | TTTTCTTCCTATTATTGTACATATAGTATTCTTTCA [XGTACX_site4428] | 9.47
23 | TTATTTGATTACTTGCGTACTTATTTCATATTTTTT [XGTACX_site6648] | 9.59

Row | Sequence | gcPBM binding intensity (ln)
24 | GGGATATTTTAAAGGGTGCATATTATTAAAATAATG | 9.17
25 | ATGAGAAAACATAAAAGTACAAAAAGAAAAAAAAAA [XGTACX_site6020] | 9.35
26 | TATTATATTAATGATGGTACAGTGTATATATATAAT [XGTACX_site1286] | 9.42
27 | TTGGGTCAAACATAAACACACACAAAAAGAAAAAAT [CACACA_site8328] | 10
28 | ACATATAATATAAAGTGTACAAGAAAATAAAAATAA [XGTACX_site1273] | 9.53
29 | TTTCCATATTTTTAAAGTACATATTTCCGTTTCCAC [XGTACX_site7832] | 9.25
30 | CAATTTTTATGTGTGTGTACTCATTTGTTTTATAAA [XGTACX_site406] | 9.81
31 | ATACAACAGATATATACACACATATAACAATAATAA [CACACA_site7560] | 9.93
32 | TTGGAATAATATAAATAAATAAATATATATATATAT [CACACA_negctrl_site900] | 9.05
33 | AAAAAAAAAAAATGTGCACACGCGTACACCCAAAAA [CACACA_site8614] | 9.51
34 | TTTCTTTTTGTTCGTGTACACACATGAAATTTATAA [CACACA_site8466] | 9.49
35 | AATTATACATATATTTAACACACATTTTATAAAGTG [CACACA_site8362] | 9.34
36 | ATATATATATATAATTGTACATGTGTGTATAATTTG [XGTACX_site2417] | 9.44
37 | TTTTATTTTATATAACAACAAAATGGAAATATATAT [GTGCAC_negctrl_site71] | 9.19
38 | GTCAATATTTAGATATGTACTAAGGAGTGCTATATA [XGTACX_site222] | 9.24
39 | TAAATGAAAATAAATTAACACACAATTTTAATATTG [CACACA_site8360] | 9.3
40 | TGCTACATAATATGTACACACATATACATATTTATA [CACACA_site6545] | 9.52
41 | GTATGATTAAATAAAGGTACACTTATATTTATTTAT [XGTACX_site6966] | 9.22
42 | TATCACATTTATGAGAGTACATAATTAATTCATGAT [XGTACX_site7850] | 9.04
43 | GAATTAATTTTAAAACGTACATGGGTGTATTTACAC [XGTACX_site5939] | 9.23
44 | TTCTTTTTTGTAATAACACACACACTAACAGAAAAA [CACACA_site8646] | 9.75
45 | CATAATACAAATGTGATACCTGAAAATGACTTATTA [CACACA_negctrl_site994] | 9.3
